Reference: PubChem BioAssay AID485344 (National Center for Advancing Translational Sciences (NCATS), 2010)
In all, about 340,000 compounds went through this assay and about 6,900 (2%) were called active. Cut-off read from the data, not from the text of the source: active = inhibition above about 30%; inactive = below that, where a call was filed. The list shows a part of the results, in another mix than the full data. Entries without a call were filed so in the source.

target: D(2) dopamine receptor (Homo sapiens) (UniProt P14416); assay: HTS Assay for Allosteric Antagonists of the Human D2 Dopamine Receptor: Primary Screen for Antagonists; details: HEK293 TREx D2 cells, calcium flux, dopamine EC80; at 10 µM; stronger effect = higher value; note: 0% is about no effect
Outline: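 Calcium flux kinetic readout in an inducible HEK293 TREx D2 line plated overnight at 30 C. After 180 s compound exposure, an EC80 dopamine challenge follows with another 180 s kinetic read to detect antagonism.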

Chain of UniProt P14416 (P14416 whole entry, looked up): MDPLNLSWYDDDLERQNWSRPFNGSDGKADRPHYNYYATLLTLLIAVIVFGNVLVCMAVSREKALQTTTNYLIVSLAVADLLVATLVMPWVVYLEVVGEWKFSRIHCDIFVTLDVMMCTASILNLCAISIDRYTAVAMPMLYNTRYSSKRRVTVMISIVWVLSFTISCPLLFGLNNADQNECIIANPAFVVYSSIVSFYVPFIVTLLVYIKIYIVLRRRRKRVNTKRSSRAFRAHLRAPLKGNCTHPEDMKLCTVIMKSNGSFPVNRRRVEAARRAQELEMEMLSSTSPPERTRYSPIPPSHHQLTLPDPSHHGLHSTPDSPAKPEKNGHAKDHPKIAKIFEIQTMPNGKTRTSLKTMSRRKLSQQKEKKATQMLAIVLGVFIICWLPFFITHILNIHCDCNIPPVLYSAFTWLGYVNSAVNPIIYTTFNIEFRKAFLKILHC

SMILES | inhibition
CC(=O)N(Cc1cccnc1)c1nc2c(C)cccc2s1 | -28.4%
COc1ccc(S(=O)(=O)NCc2ccc3c(c2)CCN3C(=O)c2ccc(C)cc2)cc1Cl | -6.45%
CCOC(=O)C1CCN(C(=O)Cn2nc(C)n3c(cc4cc(C)ccc43)c2=O)CC1 | -2.99%
COc1ccc(CCn2c(=O)c3cccnc3n(CC(=O)Nc3cccc(C)c3)c2=O)cc1OC | 8.56%
Cc1cc2nc(-c3ccc(Br)cc3)cc(C(F)(F)F)n2n1 | -8.26%
CC1(C)CC(=O)C/C(=N\NC(=O)C2CC23CCC3)C1 (configuration not stated) | active: 47.1%
N#CCCSc1ncnc2c1oc1ccccc12 | active: 36.2%
Cc1ccc(NC(=O)CSc2nc3c(oc4ccccc43)c(=O)n2Cc2ccco2)cc1 | 3.8%
CCN(CC)CCNC(=O)c1ccc(Sc2ccc(C)cc2)c(NC(C)=O)c1 | active: 53.6%
CCCn1c(=O)c2sccc2n2c(CCCC(=O)N3CCN(c4cccc(C)c4C)CC3)nnc12 | -15%
CC(C)Oc1ccc(CNC(=O)c2cnc3sc(N4CCCCC4)nn3c2=O)cc1 | 1.88%
N#C/C(=C\c1ccccc1)C(=O)Nc1sc2c(c1C(N)=O)CCC2 | 1.51%
Cn1cnc(S(=O)(=O)N2CCC(C(=O)N3CCN(c4ccc(Cl)cc4)CC3)CC2)c1 | -5.93%
CCc1ccccc1NC(=O)C1COc2ccccc2C1 (configuration not stated) | 10.3%
COc1cc2c(-c3ccc(C)cc3)nc3c(c(C)nn3-c3ccccc3)c2cc1OC | -15.6%
Cc1ccc(NC(=O)CCN2C(=O)NC3(CCCC3)C2=O)c(C)c1 | active: 50.6%
CCc1ccc(Sc2cc(C(=O)NCCCOC(C)C)c3ccccc3n2)cc1 | 4.84%
N#Cc1ccc(OC(=O)c2cc(-c3ccc4c(c3)OCCO4)on2)cc1 | -2.7%
Cc1cc(C)cc(OCC(=O)Nc2ccc(Cl)c(-c3nc4ncccc4o3)c2)c1 | 2.37%
CCOC(=O)c1oc2ccc(S(=O)(=O)n3nc(-c4cc(OC)cc(OC)c4)cc3N)cc2c1C | 9.42%
CC(=O)Nc1ccc(-n2c(CCC(=O)O)ccc2-c2ccc(C)cc2)cc1 | -6.43%
CCOC(=O)N1CCC(N2CCCC(C(=O)c3ccccc3OC)C2)CC1 (configuration not stated) | active: 70.3%
CSc1ccc(CC2C(=O)Nc3ccccc32)cc1 (configuration not stated) | 10.9%
O=C(Cc1ccccc1F)N1CCC(c2nc3c(nnn3Cc3ccc(F)cc3)c(=O)[nH]2)CC1 | 24.6%
CC1CCC(NC(=O)c2cc3c(s2)CS(=O)(=O)C3)CC1 (configuration not stated) | active: 41.3%

SMILES | inhibition
CCc1ccc(NC(=O)C2=CC(c3ccc4c(c3)OCO4)=NS(=O)(=O)N2C)cc1 | -10.7%
Cc1ccc(-c2noc(CCC(=O)NCCCN3CCN(c4ccc(F)cc4)CC3)n2)cc1 | active: 60.7%
COc1ccccc1CNC(=O)CSc1ncc2c(n1)-c1cc(Cl)ccc1N(Cc1ccccc1)S2(=O)=O | 1.17%
Cc1c(C(=O)N(Cc2ccc(Cl)cc2)CC2CCCO2)oc2ccc(F)cc12 (configuration not stated) | -1.87%
CCOc1ccc(-c2nc(SCC(=O)NCCCOC)c(-c3ccccc3)[nH]2)cc1 | -4.6%
COc1ccc(Cl)cc1NC(=O)CSc1nnc(COc2ccccc2)n1C | active: 42.8%
COc1cc(C(=O)OCc2cc(=O)n3nc(C(C)C)sc3n2)cc(OC)c1OC | 3.27%
COc1cc(NC(=O)c2cccc(F)c2)ccc1NC(=O)c1cc2ccccc2o1 | -7.04%
CCOc1ccccc1NC(=O)CN1CCCN(Cc2cccc(Cl)c2)S1(=O)=O | -3.71%
Cc1nc2ncnn2c(C)c1CCC(=O)N1CCN(c2cccc(Cl)c2)CC1 | 5.41%
CCOC(=O)c1cccc(NS(=O)(=O)c2cc3[nH]c(=O)c(=O)[nH]c3cc2C)c1 | -11.7%
CC1CCC2(CC1)N=C(c1ccccc1)C(=O)N2CC(=O)Nc1ccc(F)c(Cl)c1 (configuration not stated) | -0.929%
O=C(C1COc2ccccc2O1)N1CCN(c2ccccc2)CC1 (configuration not stated) | active: 40.6%
COc1cccc(CNC(=O)COCc2cc(-c3ccc4c(c3)OCO4)on2)c1 | 5.19%
CCc1ccc(NC(=O)c2nnn(Cc3cccc(C(F)(F)F)c3)c2N)cc1 | 10.5%
CCCOc1ccc(NC(=O)CC2C(=O)N(c3ccc(C)cc3)C(=O)N2Cc2cccc(OC)c2)cc1 (configuration not stated) | 6.42%
CCOC(=O)C1CCN(c2c(C(=O)c3ccc(C)cc3)cnc3ccc(F)cc23)CC1 | -0.0758%
O=c1c2cc3c(nc2ncn1Cc1ccc(Cl)cc1)CCCC3 | -6.39%
Cc1cccc(C(=O)NCC(=O)OC(C)C(=O)Nc2ccc(Cl)cn2)c1 (configuration not stated) | active: 37.2%
O=S(=O)(c1ccc2[nH]c3c(c2c1)CCCCC3)N1CCN(c2cccc(Cl)c2)CC1 | -1.89%
Cc1ccccc1CNC(=O)c1sc2ncnc(N(C)C3CCCCC3)c2c1C | -0.952%
CC1=C(C(=O)Nc2cccc(C(F)(F)F)c2)C2(CCCCC2)OC1=O | 11%
Cc1cccc(NC(=O)c2sc(-n3nc(C)c(CCC(C)C)c3C)nc2C)c1C | -3.8%
Cn1cnnc1SCC(=O)Nc1nc(-c2ccccc2)cs1 | active: 55.6%
O=C(Cn1c(-c2cccs2)cc2ccccc21)NCc1ccccc1Br | -7.16%

SMILES | inhibition
CSCCCN1CC[C@@H](N2CCN(c3ccccc3F)CC2)[C@H](O)C1 | active: 79.4%
CCc1cccc(C)c1NC(=O)CN1C(=O)C2(SCC(=O)N2c2cc(C)cc(C)c2)c2ccccc21 (configuration not stated) | -2.73%
CN(C)S(=O)(=O)c1ccc2c(c1)N(CC(=O)N1CCN(c3ccccc3F)CC1)CCS2 | -14.5%
COc1cccc(C(=O)Nc2ccccc2-c2nc3ccccc3s2)c1 | 9.53%
CCCN1C(=O)/C(=C/c2c(N3CCNC(=O)C3CC(=O)OC)nc3c(C)cccn3c2=O)SC1=S (configuration not stated) | active: 42.7%
CCc1cccc(C)c1NC(=O)C1CCN(S(=O)(=O)Cc2ccccc2)CC1 | 1.59%
Cc1ccc(Nc2nc(Nc3ccc(C)c(C)c3)nc(N3CCOCC3)n2)cc1C | 8.04%
Cc1ccc(-n2nnnc2CNC(=O)c2ccccc2)cc1C | 0.67%
COc1cc(C(=O)N2CCN(c3ccc(Nc4ccccc4)nn3)CC2)cc(OC)c1OC | -17.4%
CC1CCCCN1S(=O)(=O)c1cc2c3c(c1)CC(=O)N3CCC2 (configuration not stated) | -22%
Cc1ccc(CNC(=O)CCCCn2c(=O)c3ccccc3n(Cc3ccc(C)cc3)c2=O)cc1 | 5.3%
CCOC(=O)c1c(S(=O)(=O)N2CCC(C(=O)NCc3ccccc3OC)CC2)c(C)n(C)c1C | -0.455%
Cc1cc(C)cc(OCC(=O)N(Cc2ccc(Cl)cc2)CC2CCCO2)c1 (configuration not stated) | -14.6%
CCCCSCCCNC(=O)c1cn(C)c2ccc(S(=O)(=O)N3CCCC3)cc2c1=O | 1.25%
COc1ccc(-c2nc3ccc(C)cn3c2Nc2ccc3c(c2)OCO3)cc1 | -11.4%
Cc1ccc(-n2nc(C(=O)Nc3ccc(C)c(F)c3)c(=O)n(C)c2=O)cc1 | 1.23%
O=C(NC1CCCC1)c1ccc2c(=O)n(Cc3ccccc3)c(SCc3ccccc3)nc2c1 | 9.85%
COc1cc(C(=O)Nc2ccc(NC(=O)c3ccc(Br)cc3)cc2)cc(OC)c1OC | 0.879%
COc1ccc(CCn2c3c(c(=O)[nH]c2=O)C(NC(=O)c2ccccc2OC)(C(F)(F)F)C(=O)N3)cc1OC (configuration not stated) | 14.8%
Cc1oc(-c2cccc(Cl)c2)nc1CSc1nc2ncccc2[nH]1 | 8.38%
Cc1ccc(-n2ccnc(NCCc3ccc(S(N)(=O)=O)cc3)c2=O)cc1C | -2.64%
CCC1CCCCN1C(=O)CSc1nc2c([nH]c3ccccc32)c(=O)n1-c1cccc(OC)c1 (configuration not stated) | 3.1%
COc1ccc(CNCC(O)COc2cccc3c2OC(C)(C)C3)cc1 (configuration not stated) | active: 44.3%
O=C(COc1ccccc1Cl)Nc1ccc(Cl)c(-c2nc3ccccc3o2)c1 | 17.7%
O=C(O)c1ccc2nc(-c3cc4cc(F)ccc4oc3=O)[nH]c2c1 | 9.46%

SMILES | inhibition
Cc1cccc(N2CCN(C(=O)c3cc4c(=O)n(C)c5ccccc5c4s3)CC2)c1C | 11.2%
COc1ccc(NC(=O)c2ccc(-c3ccccc3C(F)(F)F)o2)cc1 | active: 49.3%
Cc1ccc(CN2CCN(C3CCN(S(=O)(=O)c4ccc(C)cc4)CC3)C(=O)C2=O)cc1 | -6.97%
CCOc1ccc(NC(=O)C(=O)NCCc2csc3nc(-c4ccccc4F)nn23)cc1 | 8.47%
COC(=O)c1ccc(Cl)cc1NC(=O)N(C)CCc1c(C)nn(C)c1C | 9.5%
CCOc1ccc(NC(=O)Cn2cc(C(=O)c3ccc(C)c(C)c3)c(=O)c3cc(OC)c(OC)cc32)cc1 | 8.42%
CCOC(=O)c1ccc(NC(=O)c2csc3c2CCCCC3)cc1 | -5.88%
COc1cc(NC(=O)C(CC(C)C)NS(=O)(=O)c2ccc3c(c2)oc(=O)n3C)c(C(=O)O)cc1OC (configuration not stated) | -8.26%
O=c1cc(-c2ccc(F)cc2)nc(SCc2nc(-c3ccccc3Cl)no2)[nH]1 | 0.972%
Cc1nn(Cc2ccc([N+](=O)[O-])cc2)c(=O)n1-c1cccc(Cl)c1 | active: 32.5%
COc1ccc(OC(C)c2nc3ccccc3[nH]2)cc1 (configuration not stated) | -10.7%
O=C(Nc1ccc2oc(-c3cccnc3)nc2c1)c1ccc(-c2ccccc2)o1 | 10.3%
CC1CCCN(CCCCOc2cccc(Br)c2)C1 (configuration not stated) | active: 75%
CCc1ccc(NC(=O)C(=O)NCC(c2cccnc2)N2CCN(C)CC2)cc1 (configuration not stated) | 7.96%
CC(=O)N1CCC2(CC1)OC(=O)C(C)=C2C(=O)NCc1ccc(Cl)cc1 | -2.2%
Cn1ccc2c(OCC(=O)NCc3ccccc3Cl)cccc2c1=O | 19.5%
CCc1ccc(CNC(=O)c2ccc3nc(C(C)C)oc3c2)cc1 | -16.9%
CN(CCC#N)C(=O)Cn1nc(Cc2ccncc2)c2ccccc2c1=O | active: 35.2%
COc1cccc(CNC(=O)Cc2c(C)c3c(cc(C)c4c(C)coc43)oc2=O)c1 | 13.8%
CCOc1ccc(NC(=O)Nc2ccc3snnc3c2)cc1 | -0.0812%
O=C(Cn1ncc2c3ccccc3n(Cc3ccccc3)c2c1=O)Nc1ccccc1C(F)(F)F | 0.379%
COc1ccc(OC)c(CNC(=O)CCCn2nc(C)c3c(C)n(-c4ccc(C)cc4)nc3c2=O)c1 | 10.1%
